Results on 22 molecules are retold here after PubChem BioAssay AID1379 (National Center for Advancing Translational Sciences (NCATS), 2008).

Out of some 200,000 compounds screened, about 560 (0.28%) were called active. Calls come from the whole dose curve; as a rule, active = well fitted inhibition curve with a large enough effect; inconclusive = small, poorly fitted or top-dose-only effect; inactive = flat fitted curve, though single readings scatter. This is a selection; strong and weak results do not stand in their true shares. The source holds several records for some structures; these can differ, active in one and inactive in another.
% is set by controls: 0 for no effect and ±100 for the full control effect; potency is the fitted concentration of half-maximal effect.

This assay concerns the target Luciferin 4-monooxygenase (Photuris pensylvanica) (UniProt Q27757). The assay can be described thus: Counterscreen for Luciferase (Kinase-Glo TM) Inhibition. Note: nearly all actives have a fitted effect of over 60% in size. To be noted: ATP luminescence, 8 min; series mostly up to 38.3 µM; activity change, negative = inhibition: at the top concentration. Here is the method: NCGC Assay Overview: NIH Molecular Libraries Screening Centers Network [MLSCN] NIH Chemical Genomics Center [NCGC] MLSCN Grant: None Luciferase (Kinase-Glo, Promega Corporation) was assayed for its ability to generate light using ATP and luciferin as substrates. The ATP concentration in the assay (10 uM) was within the linear range of enzyme activity for the assay conditions used.
NCGC Assay Protocol Summary: Four uL of substrate mix (final concentration, 50 mM imidazole pH 7.2, 50 mM KCl, 7 mM MgCl2, 10 uM ATP, 0.01% Tween 20, 0.05% BSA) was dispensed into white 1536 well plates. Twenty-three nL of compound was delivered by a pin tool and 2 uL of luciferase detection mix (Kinase-Glo, Promega)) was added. Following 8-minute incubation at ambient temperature, luminescence was measured by a ViewLux (Perkin Elmer) at 5 seconds exposure/plate.
In general terms: Counterscreens check selectivity or assay interference.
Consider `O=C1c2c(O)ccc(O)c2C(=O)c2c(NCCNCCO)ccc(NCCNCCO)c21`, for which the “activity change, negative = inhibition” value was inactive: -11.5% [at 17.1 µM].
With `Cc1ccc(-c2nc(N/N=C/c3cccnc3)c3ccccc3n2)cc1`, the Potency is active: 7.94 µM.
In the case of `Cc1nc(N=Nc2cc(S(=O)(=O)O)c3cc([N+](=O)[O-])cc(S(=O)(=O)O)c3c2)c(COP(=O)(O)O)c(C=O)c1O`, the “activity change, negative = inhibition” value was inactive: -20.4%.
On to `Oc1cc(O)cc(/C=C/c2ccc(O)c(O)c2)c1`, for which the “activity change, negative = inhibition” value was inactive: -6.54%.
Same read-out and setting: the same measure for `CN1C(=O)/C(=C/c2cc(N=Nc3ccccc3)ccc2O)SC1=S`: inactive: -22.9%.
On the same count and under the same terms, the same measure for `COc1cc2nc(N3CCN(C(=O)[C@H]4CCCO4)CC3)nc(N)c2cc1OC`: inactive: -16.1%.
Consider `c1c2c(cc3sc(N4CCOCC4)nc13)OCO2`, for which the Potency was active: 11.2 µM.
Consider `COc1ccc(-c2nnc(SCC(=O)N(Cc3ccccc3)C(C)(C)C)o2)cc1OC`, for which the “activity change, negative = inhibition” value was inactive: 32%.
In the case of `O=C(/C=C/Nc1ccccc1)c1ccccc1`, the Potency is active: 7.08 µM.
Turning to `Oc1cc2c(cc1O)[C@@H]1c3ccc(O)c(O)c3OC[C@]1(O)C2`, the “activity change, negative = inhibition” value was inactive: -2.81%.
Regarding `c1c2c(cc3sc(N4CCCCC4)nc13)OCCO2`, the Potency was active: 12.6 µM.
With `Oc1cc2c(cc1O)[C@H]1c3ccc(O)c(O)c3OC[C@@]1(O)C2`, the “activity change, negative = inhibition” value is inactive: 0.288%.
For the molecule `c1ccc(-c2nc3ccccc3[nH]2)nc1`, the Potency was active: 7.94 µM.
Still for that read-out and setting: the same measure for `COc1cc2nc(N3CCN(C(=O)C4CCCO4)CC3)nc(N)c2cc1OC` (configuration not stated): “inactive”; for `Cc1ccsc1/C=C/c1ccc2ccccc2n1`: active: 11.2 µM; for `Cc1cc(C(=O)N/N=C/c2ccc3c(c2)OCO3)c(C)o1`: active: 12.6 µM.
Regarding `COc1ccccc1Nc1nnc(SCC2CCCCO2)s1` (configuration not stated), the Potency is active: 8.91 µM.
Turning to `COC1/C=C/OC2(C)Oc3c(C)c(O)c4c(O)c(c(/C=N/N5CCN(C)CC5)c(O)c4c3C2=O)NC(=O)/C(C)=C/C=C/C(C)C(O)C(C)C(O)C(C)C(OC(C)=O)C1C` (configuration not stated), the “activity change, negative = inhibition” value was inactive: -8.09%.
Consider `Cc1occc1C(=O)Nc1ccc2c(c1)OCCO2`, for which the Potency is active: 7.08 µM.
Consider `COc1cc2nc(N3CCN(C(=O)[C@@H]4CCCO4)CC3)nc(N)c2cc1OC`, for which the “activity change, negative = inhibition” value was inactive: -10% [at 17.1 µM].
As for `Cc1c(C(=O)O)c(O)cc2c1C(=O)c1c(O)c([C@H]3O[C@H](CO)[C@@H](O)[C@H](O)[C@H]3O)c(O)c(O)c1C2=O`, the “activity change, negative = inhibition” value is inactive: -29.5% [at 39.9 µM].
On the same count and under the same terms, the same measure for `Cc1cccc(/C=C/c2nc3ccccc3c(=O)[nH]2)c1`: inactive: -20.4%.
